The shares of active, inactive and inconclusive entries below differ from those in the screen. Where the call is inconclusive, the potency comes from a doubtful curve fit. Active and inactive are the calls of the source. Calls come from the whole dose curve; as a rule, active = well fitted cell-killing curve with a large enough effect; inconclusive = small, poorly fitted or top-dose-only effect, or effect the other way; inactive = no such curve, though single readings can be large or run the other way.
Experiments:
[1] = Viability qHTS for spleen associated tyrosine kinase inhibitor (SYKi) naive MV4-11 cells (AID 1963823); note: nearly all actives have a fitted effect of over 40% in size
In short: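 Read-out: CellTiter-Glo luminescence. Exposure: 72 hr, 37 C, 5% CO2, 95% humidity. Cells: MV4-11 without SYK inhibitor history, 500/well, qHTS format.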

[2] = Viability qHTS for spleen associated tyrosine kinase inhibitor (SYKi) drug resistant MV4-11 cells (AID 1963824); note: nearly all actives have a fitted effect of over 35% in size
In short: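 CellTiter-Glo luminescence, read 10 min after reagent addition, reports viability after a 72 hr compound exposure. Cells are an MV4-11 line made resistant to SYK inhibition, seeded at 500 per well onto compound-containing plates.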
Potency is the fitted concentration of half-maximal effect; tags give direction and shape of the fitted curve.

SMILES | Potency [1] | Potency [2]
CCc1nn(C)c(C(=O)NCc2ccc(Oc3ccc(C)cc3)cc2)c1Cl | inconclusive: 2.59 µM [cytotoxic, partial curve, poor fit] | inconclusive: 0.0291 µM [cytotoxic, full curve, poor fit]
CCCN(CCC)C(=O)Cc1c(-c2ccc(Cl)cc2)nc2ccc(Cl)cn12 | inconclusive: 15 µM [cytotoxic, partial curve] | inconclusive: 21.1 µM [cytotoxic, partial curve]
NNC(=O)c1nn(Cc2ccc(Cl)cc2Cl)c2ccccc12 | inconclusive: 16.4 µM [cytotoxic, partial curve, poor fit] | inconclusive: 16.4 µM [cytotoxic, partial curve, poor fit]
C[C@@H]1CCC2[C@@H](C)C(=O)OC3O[C@@]4(C)CCC1[C@]32OO4 (stereo partly specified) | inconclusive: 2.59 µM [cytotoxic, partial curve] | inconclusive: 1.16 µM [cytotoxic, partial curve]
COP(=O)(OC)OC=C(Cl)Cl | inconclusive: 0.668 µM [rising, partial curve, poor fit] | inconclusive: 0.0033 µM [rising, full curve, poor fit]
CC(C)(N)Cc1ccccc1Cl | inactive | inconclusive: 0.0084 µM [rising, single point]
CCCCCOc1cc2c(cc1-c1cc(/C=C/C(=O)O)ccc1O)C(C)(C)CCC2(C)C | active: 20.6 µM | active: 23.1 µM
CC1=CC(=O)[C@@H](O)[C@@]2(C)C1C[C@H]1OC(=O)[C@H](O)[C@@]3(O)[C@@H](C)[C@@H](O)[C@H](O)C2[C@@]13C (stereo partly specified) | active: 2.02 µM | active: 1.8 µM
NC(=O)CN1CCCC1=O | inactive | inconclusive: 5.31 µM [cytotoxic, partial curve, poor fit]
CC(C)[C@H](NC(=O)c1nn(Cc2ccc(F)cc2)c2ccccc12)C(N)=O | inconclusive: 3.66 µM [cytotoxic, partial curve] | inconclusive: 2.91 µM [cytotoxic, full curve]
c1ccc(C2(c3ccccc3)OC[C@@H]([C@H]3CCCCN3)O2)cc1 | inconclusive: 41.1 µM [cytotoxic, single point] | inconclusive: 23.1 µM [cytotoxic, partial curve, poor fit]
O=C(CCCN1CCC2(CC1)C(=O)NCN2c1ccccc1)c1ccc(F)cc1 | inactive | inactive
O=C(O)CNC(=O)C1C(=O)N(C2CCCCC2)C(=O)N(C2CCCCC2)C1=O | inactive | inconclusive: 0.525 µM [cytotoxic, full curve, poor fit]
COC(=O)[C@@]12C(=O)C(C)C(=O)[C@]1(C)C(C)=C[C@H]1[C@]3(C=O)CC[C@H](OC(C)=O)C(C)(C)[C@H]3CC[C@@]12C (stereo partly specified) | inactive | inconclusive: 11.2 µM [cytotoxic, single point]
Cc1cccc([C@H](C)c2cnc[nH]2)c1C | inconclusive: 39.8 µM [cytotoxic, single point] | inconclusive: 39.8 µM [cytotoxic, single point]
O=C(N[C@H]1CN2CCC1CC2)c1cc2cccc(Cl)c2s1 | active: 14.6 µM | active: 20.6 µM
C[C@H]1O[C@@H](n2cnc3c(N)ncnc32)C[C@@H]1O | inactive | inactive
CCCC1CCCCN1 (stereo unspecified) | inconclusive: 0.0841 µM [rising, full curve, poor fit] | inconclusive: 0.0012 µM [rising, full curve]
CN1C(=O)CN=C(c2ccccc2Cl)c2cc(Cl)ccc21 | inconclusive: 25.9 µM [cytotoxic, single point] | inconclusive: 25.9 µM [cytotoxic, single point]

SMILES | Potency [1] | Potency [2]
CC1=CC2/C=C(\C)CCCC(O)/C=C/C(=O)OC23C(=O)NC(CC(C)C)C3C1C (stereo unspecified) | inconclusive: 16.1 µM [cytotoxic, single point] | inconclusive: 10.1 µM [cytotoxic, single point]
C[C@]12CCC(=O)C=C1CC[C@@H]1[C@H]3CC[C@](C)(O)[C@@]3(C)CC[C@@H]12 | inconclusive: 3.47 µM [cytotoxic, full curve] | active: 21.9 µM
CCOC(=O)c1ccc(-c2ccc(OC(=O)N(C)Cc3cccc(-c4ccncc4)c3)cc2)cc1 | inconclusive: 5.8 µM [cytotoxic, partial curve, poor fit] | inconclusive: 3.26 µM [cytotoxic, partial curve]
Cc1cc(O)ccc1Cl | inconclusive: 0.0668 µM [rising, full curve] | inactive
FC(F)(F)c1ccc(N2CCNCC2)nc1Cl | inconclusive: 25.9 µM [cytotoxic, single point] | inconclusive: 32.6 µM [cytotoxic, single point]
CN1C(=O)[C@]23CC4C(C)(C)[C@@]5(C[C@@]41CN2CC[C@@]3(C)O)C(=O)Nc1c5ccc2c1OC=CC(C)(C)O2 (stereo partly specified) | inconclusive: 10 µM [cytotoxic, single point] | inconclusive: 11.2 µM [cytotoxic, partial curve]
CNC(=O)c1cc(C#N)cc(C)c1NC(=O)c1cc(Br)nn1-c1ncccc1Cl | inconclusive: 25.9 µM [cytotoxic, single point] | inconclusive: 14.6 µM [cytotoxic, partial curve]
Cc1c(N[C@@H](c2nnc(-c3ccc(C#N)cc3)o2)[C@H](C)O)ccc(C#N)c1Cl | inconclusive: 18.4 µM [cytotoxic, single point] | inconclusive: 18.4 µM [cytotoxic, partial curve]
C/C=C1/CN2CC[C@]34C(=Nc5ccc(OC)cc53)C2C[C@@H]1C4(CO)C(=O)OC (stereo partly specified) | inconclusive: 10.1 µM [cytotoxic, partial curve, poor fit] | inactive
C[C@H]1CN(CC[C@H](O)C2CCCCC2)CC[C@@]1(C)c1cccc(O)c1 | inconclusive: 14.6 µM [cytotoxic, partial curve] | inconclusive: 23.1 µM [cytotoxic, single point]
CC(C)[C@]12O[C@H]1[C@@H]1O[C@@]13[C@@]1(C)CCC4=C(COC4=O)[C@@H]1C[C@@H]1O[C@@]13C2=O | inconclusive: 0.0295 µM [cytotoxic, full curve] | inconclusive: 0.0235 µM [cytotoxic, full curve]
CC1CCCC(O)CC(=O)Cc2cc(O)cc(O)c2C(=O)O1 (stereo unspecified) | inactive | inactive
CC1=CC2/C=C(\C)CCC(O)C(O)/C=C/C(=O)C23C(=O)NC(CC(C)C)C3C1C (stereo unspecified) | active: 1.26 µM | active: 1.42 µM
CN1C(=O)N(c2ccc(C#N)c(C(F)(F)F)c2)C(=O)[C@]1(CO)c1ccccc1 | inconclusive: 18.4 µM [cytotoxic, partial curve] | inconclusive: 11.6 µM [cytotoxic, partial curve]
C[C@]12CCC(=O)C=C1CC[C@@H]1[C@@H]2CC[C@]2(C)C(=O)CC[C@@H]12 | inactive | inconclusive: 0.237 µM [cytotoxic, full curve, poor fit]
CC(CCc1ccccc1)NC(C)C(O)c1ccc(O)cc1 (stereo unspecified) | inconclusive: 23.7 µM [cytotoxic, single point] | inconclusive: 33.5 µM [cytotoxic, partial curve, poor fit]
Clc1ccccc1N1CCNCC1 | inconclusive: 0.299 µM [rising, full curve, poor fit] | inactive
CO[C@@H]1[C@H](O)[C@@H](O[C@@H]2C[C@H]3CC[C@@H]4C(CC[C@]5(C)[C@@H](C6=CC(=O)OC6)CC[C@]45O)[C@@]3(C)[C@H](O)C2)O[C@H](C)[C@@H]1O[C@@H]1O[C@H](CO)[C@@H](O)[C@H](O)[C@H]1O (stereo partly specified) | active: 0.0968 µM | active: 0.0544 µM
CCN1C[C@]2(COC)CC[C@H](O)[C@@]34C5C[C@@H]6[C@@H](OC)C[C@@](OC(C)=O)(C5[C@@H]6OC(C)=O)[C@H]([C@H](OC)C23)[C@@H]14 (stereo partly specified) | inconclusive: 11.2 µM [cytotoxic, partial curve, poor fit] | inconclusive: 6.32 µM [cytotoxic, single point]

From PubChem BioAssay (NCATS)
